# In article PMC4336329 (PLoS ONE, 2015):
# Out of some 310,000 compounds screened, about 2,200 (0.71%) showed an effect of 50% or more. Effects have a minus sign here. The list shows a part of the results.
# Biological target: human ether-à-go-go-related gene (hERG) potassium channel (human, UniProt Q12809)
# Assay: primary screen, population patch clamp on CHO cells stably expressing hERG
# human ether-à-go-go-related gene (hERG) potassium channel, sequence (Q12809 whole entry, looked up): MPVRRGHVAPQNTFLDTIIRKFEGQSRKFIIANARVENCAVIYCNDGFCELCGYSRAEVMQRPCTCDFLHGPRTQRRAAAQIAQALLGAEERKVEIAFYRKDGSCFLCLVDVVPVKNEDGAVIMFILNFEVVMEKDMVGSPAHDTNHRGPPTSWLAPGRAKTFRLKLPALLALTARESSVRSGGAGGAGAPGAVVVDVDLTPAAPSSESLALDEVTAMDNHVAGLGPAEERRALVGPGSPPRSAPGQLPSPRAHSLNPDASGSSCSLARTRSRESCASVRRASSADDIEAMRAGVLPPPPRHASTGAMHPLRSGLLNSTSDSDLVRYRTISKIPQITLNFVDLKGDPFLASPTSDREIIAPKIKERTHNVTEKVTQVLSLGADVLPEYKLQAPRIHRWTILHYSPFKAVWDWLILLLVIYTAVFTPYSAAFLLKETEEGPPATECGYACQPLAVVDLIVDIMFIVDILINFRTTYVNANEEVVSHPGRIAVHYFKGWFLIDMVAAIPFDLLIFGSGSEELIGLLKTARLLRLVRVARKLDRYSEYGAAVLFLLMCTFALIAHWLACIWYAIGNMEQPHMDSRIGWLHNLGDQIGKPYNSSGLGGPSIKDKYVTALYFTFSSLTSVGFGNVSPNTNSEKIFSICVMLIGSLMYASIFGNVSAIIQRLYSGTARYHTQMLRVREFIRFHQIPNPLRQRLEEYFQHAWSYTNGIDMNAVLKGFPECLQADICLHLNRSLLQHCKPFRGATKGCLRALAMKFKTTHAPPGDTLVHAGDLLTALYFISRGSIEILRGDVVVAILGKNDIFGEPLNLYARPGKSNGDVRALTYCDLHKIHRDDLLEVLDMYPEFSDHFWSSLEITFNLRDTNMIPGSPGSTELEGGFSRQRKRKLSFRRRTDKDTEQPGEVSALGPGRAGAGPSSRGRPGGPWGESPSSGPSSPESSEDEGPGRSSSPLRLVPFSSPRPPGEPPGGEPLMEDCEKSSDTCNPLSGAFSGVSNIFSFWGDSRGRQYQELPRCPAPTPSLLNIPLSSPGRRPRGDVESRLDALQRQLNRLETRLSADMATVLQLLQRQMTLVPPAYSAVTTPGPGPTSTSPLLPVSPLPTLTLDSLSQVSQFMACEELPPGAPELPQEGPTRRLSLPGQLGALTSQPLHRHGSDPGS
row,SMILES,"hERG current change (%, negative = inhibition) at 1uM [%]"
1,COc1cc(OC)cc(C(=O)N[C@H](C(=O)Nc2nc(-c3cc(OC)ccc3OC)cs2)C(C)C)c1,10.2
2,CC(C)(C)c1ccc(-c2cc(C(=O)NNC(=O)Nc3ccccc3)c3ccccc3n2)cc1,5.51
3,COc1ccc(CCNC(=O)c2nnc(Cc3ccc(Cl)cc3)o2)cc1OC,9.88
4,Cc1ccc(S(=O)(=O)Nc2cccc(C(=O)NCCCn3ccnc3)c2)cc1F,1.99
5,CCOc1ncccc1C(=O)NCc1ccc(OC)c(OC)c1,-5.01
6,COc1c(F)c(F)c(-c2csc(N)n2)c(F)c1F,9.51
7,C=CCOc1ccc(Br)cc1/C=C1\NC(=S)N(C(C)=O)C1=O,14.5
8,Cc1cc(C)c(S(=O)(=O)N2CCCC(C(=O)NCc3cccnc3)C2)c(C)c1 (centres unmarked),8.52
9,O=C(Oc1ccc(-c2cnc3ccccc3n2)cc1)c1cccc([N+](=O)[O-])c1,-8.4
10,CC(=O)c1ccc(S(=O)(=O)Nc2ccc(-c3ccc4nnc(C)n4n3)cc2)cc1,20.8
11,O=C(Nc1ncccn1)c1ccc([N+](=O)[O-])cc1Cl,11.7
12,CC(C)C(NC(=O)c1cccs1)C(=O)NC1CCCCC1 (centres unmarked),18.3
13,FC(F)(F)c1cccc(N2CCN(CC3CC4C=CC3C4)CC2)c1 (centres unmarked),-5.34
14,Cl.O=c1oc2ccccc2cc1C1=Nn2c(nnc2-c2cccnc2)SC1,-5.24
15,CCCCn1c(N)c(N(CCOC)C(=O)COC(=O)COc2c(C)cc(C)cc2C)c(=O)[nH]c1=O,4.18
16,Oc1ccccc1-c1nc(NCc2ccccc2)c2ccccc2n1,7.24
17,O=C(COc1ccccc1[N+](=O)[O-])Nc1cccc(C(=O)Nc2ccccc2C(=O)O)c1,15.4
18,CCCn1c(N)c(C(=O)CSc2nnc(C)n2Cc2ccccc2)c(=O)n(C)c1=O,4.72
19,CCN(CC)C(=O)c1ccccc1NC(=O)c1ccccc1SC,-2.03
20,O=C(NCc1ccccc1F)c1cc(=O)[nH]c2ccccc12,12.7
21,COc1cc(/C=N/NC(=S)NCc2ccccc2)ccc1OCC#N,0.937
22,CCN(CC)C(=O)Oc1ccc2ccccc2c1Cl,6.86
23,C=CCN(Cc1nc(-c2ccccc2)no1)C(=O)c1ccco1,9.84

row,SMILES,"hERG current change (%, negative = inhibition) at 1uM [%]"
1,Cn1cccc1/C=N/NC(=O)c1ccccn1,6.14
2,COC(=O)Cc1ccc(NC(=S)N2CCCC(C)C2)cc1 (centres unmarked),18.5
3,Cc1cc(-c2nnc(CCC(=O)N(CC3CCC3)CC3CCCO3)o2)no1 (centres unmarked),5.71
4,COc1cc2ccccc2cc1C(=O)N(CCN(C)C)c1nc2ccc(Br)cc2s1.Cl,11.9
5,C=CCn1c(SC(C)C(N)=O)nc2sc(CC)cc2c1=O (centres unmarked),5.7
6,COc1ccc(OCc2cc(C(=O)NCC3(C)COC3)no2)c(Cl)c1,10.4
7,CNC(=O)COC(=O)/C=C/c1cccc(F)c1,13.9
8,CC1CCC(NC(=O)N(CCCl)N=O)CC1 (centres unmarked),12.1
9,CCN(CC)S(=O)(=O)c1ccc(N2CCCC2)c(C(=O)OCC(=O)/C(C#N)=C(\C)N)c1,12.1
10,CC(NC(=O)/C=C/c1ccc(Br)cc1)c1ccccc1 (centres unmarked),12.2
11,O=C(Nc1ccccn1)NC1CCS(=O)(=O)C1 (centres unmarked),-10.3
12,CCN1CCCc2cc(CN(CCN3CCOCC3)C(=S)Nc3cccc(OC)c3)ccc21,11.8
13,C=CCn1c(=O)c2c3c(sc2n2c(Nc4ccccc4)nnc12)CCCC3,16
14,COC(=O)c1sc(SC)nc1N,14.7
15,O=C(CCC(=O)c1ccc(Br)cc1)Nc1cccnc1,9.29
16,COc1ccc(N2CCN(C(=O)CNC(=O)Cc3ccccc3)CC2)cc1,-1.07
17,Cc1onc(-c2ccccc2Cl)c1C(=O)Nc1ccc(Br)cc1,20.8
18,CCOc1ccccc1CNC(=O)C(C)n1nc(C)c2c(C)n(-c3ccccc3)nc2c1=O (centres unmarked),-12.9
19,Cn1c(SCC(=O)Nc2cccc(S(=O)(=O)NC3=NCCCCC3)c2)nnc1-c1ccccc1,9.91
20,O=C1c2cc(Cl)ccc2OC2(CCNCC2)C12CC(c1ccccc1)=NO2 (centres unmarked),10.1
21,CCCCNc1nc2cccnc2s1,14.9
22,CC(=O)Nc1nc(C)nc(-c2ccccc2OC(C)=O)n1,1.59
23,COc1cccc(NC(=S)/C(=C(\[O-])c2ccc([N+](=O)[O-])cc2)[n+]2ccccc2)c1,17.7

row,SMILES,"hERG current change (%, negative = inhibition) at 1uM [%]"
1,CCCCCC(=O)N1CCN(CCN=CC2=C(O)CC(c3cccs3)CC2=O)CC1 (centres unmarked),-109
2,CCOC(=O)c1c(NC(=O)Nc2ccc(C)cc2)sc2c1CCN(C)C2,9.62
3,COc1cccc(NC(=O)CN(C)C(=O)c2cccc(NS(=O)(=O)c3ccccc3)c2)c1,4.21
4,CCOC(=O)C1CCCN(C2CC(=O)N(c3ccc(C(C)C)cc3)C2=O)C1 (centres unmarked),4.04
5,COc1ccc(NC(=O)c2ccccc2C(=O)N2CCCCC2)cc1,5.4
6,O=S(=O)(Cc1noc(-c2ccccc2Cl)n1)c1ccccn1,9.02
7,Cc1ccc(Cl)cc1NC(=S)N(CCN(C)C)C(C)c1ccccn1 (centres unmarked),3.51
8,CC(=O)c1sc(N/N=C\c2ccc(Br)cc2)nc1C,10.8
9,CCC(=O)NC(c1cc(Cl)c2cccnc2c1O)C(C)C (centres unmarked),-2.41
10,CC(=O)/C(=N\Nc1cccc(Cl)c1)Sc1cccc2cccnc12,-2.93
11,COC(=O)NCC12CC3CC(C1)CC(CNC(=O)OC)(C3)C2,8.73
12,O=C(Cn1c(=O)sc2ccccc21)N1CCOCC1,4.68
13,CC(C)=NNc1nc2sc3c(c2c(=O)[nH]1)CC(C)(C)OC3,-12.9
14,COc1ccc(CCNC(=O)C(=O)NCc2cccs2)cc1OC,14.2
15,O=C(NCc1ccco1)c1ccc(Cl)s1,13.1
16,O=S(=O)(NCc1ccco1)c1cccc(S(=O)(=O)N2CCCCC2)c1,-1.83
17,CCc1ccccc1N(C(=O)c1snc(C(N)=O)c1N)C(C(=O)NCC1CCCO1)c1c[nH]c2ccccc12 (centres unmarked),11.8
18,Cc1cc(C)n2nc(C(=O)NC(C)(C)C)nc2n1,5.19
19,O=C(NCC1CCCO1)c1coc2nc3ccccc3nc12 (centres unmarked),-10.9
20,C=CCNS(=O)(=O)c1ccc(OCC(=O)OCC)cc1,11.3
21,COc1ccc(-c2noc(N3CCC(C(=O)Nc4ccccc4Cl)CC3)n2)cc1,12.7
22,O=C(CN1C(=O)/C(=C\c2ccc(F)cc2)Oc2ccccc21)NCc1ccco1,3.83
23,O=C(O)COc1ccc(/C=N/n2c(COc3ccccc3)nc3ccccc3c2=O)cc1,20.2

row,SMILES,"hERG current change (%, negative = inhibition) at 1uM [%]"
1,O=C(NCCC1=CCCCC1)C1CCN(S(=O)(=O)N2CCOCC2)CC1,-2.77
2,CCCn1c(NC(=O)C23CC4CC(CC(O)(C4)C2)C3)nc2ccccc21,9.1
3,O=C(CCC(=O)Nc1ccc(Br)cc1)N/N=C/c1ccc(O)cc1,9.09
4,O=C(COc1cc2oc(=O)cc(-c3ccccc3)c2cc1Cl)NCC1CCC(C(=O)O)CC1 (centres unmarked),-9.56
5,Cc1ccc(C(=O)N/N=C/c2nc3ccccc3n2C)cc1,16.2
6,O=C(Nc1cccc(Cl)c1)NC1(C(=O)NCc2cccs2)CCCCC1,8.9
7,Cc1ccc(NC(=O)CN(c2ccccc2)S(=O)(=O)N(C)C)cc1,5.07
8,O=C(NC1CCCC1)c1ccc(CS(=O)(=O)Cc2ccccc2F)o1,9.65
9,COc1ccc(C(=O)NC2CCCc3ccccc32)cc1OC1CCN(C(C)=O)CC1 (centres unmarked),3.31
10,Fc1ccccc1Nc1nc2ccccc2o1,4.61
11,Cc1c(NC(=O)C(C)OC(=O)c2cc(Cl)nc(Cl)c2)c(=O)n(-c2ccccc2)n1C (centres unmarked),8.62
12,CCN1/C(=C/c2ccc3ccccc3[n+]2CC)C=Cc2ccccc21.[Cl-],-89.5
13,CC1CN(C(=O)CCC(=O)NC2CCN(Cc3ccccc3)CC2)c2ccccc2O1 (centres unmarked),-1.62
14,COC(=O)C1=C(C(=O)c2ccccc2)C(c2cccs2)n2nnnc2N1 (centres unmarked),19.3
15,COc1cc(/C=C/C(=O)O)ccc1OS(=O)(=O)c1c(C)c(C)cc(C)c1C,-8.13
16,COc1cc(NC(=O)C(C)C)ccc1NC(=O)c1cc2ccccc2o1,19
17,Cc1cc(NC(=O)c2cccc(S(=O)(=O)N(C)C)c2)n(-c2ccccn2)n1,11.3
18,Cc1ccc(NC(=O)C2c3ccccc3Oc3ccccc32)c(C)c1,5.9
19,CCOCCCN1CN(Cc2ccccc2)CNC1=S,17.3
20,Cc1cc(NC(=O)COC(=O)c2c(C)noc2C)ccc1Br,10.9
